# Source: PubChem BioAssay AID686971 (National Center for Advancing Translational Sciences (NCATS), 2013)
# The whole screen tested about 360,000 compounds, of which about 7,500 (2.1%) were called active. The inconclusive results got no clear call from the source; some entries with a clear call stand among them for comparison. Calls come from the whole dose curve; as a rule, active = well fitted cell-killing curve with a large enough effect; inconclusive = small, poorly fitted or top-dose-only effect, or effect the other way, or another doubt; inactive = no such curve, though single readings can be large or run the other way. Potencies of inconclusive entries are left out as doubtful fits.
# Test: qHTS for induction of synthetic lethality in tumor cells producing 2HG: qHTS for the HT-1080-IDH1KD cell line;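 for activity, negative = toxicity: 0% = DMSO wells and -100% = cell-free medium wells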
# Conditions: HT-1080 IDH1 knockdown viability, ATP luminescence, 48 h; activity, negative = toxicity: at 46.1 µM (top of the series) unless noted
# Outline: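 % activity derives from luminescence (CellTiter-Glo), normalised to DMSO and no-cell wells. HT-1080-IDH1KD cells, 750/well, had 48 h compound exposure at 37 °C.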
# Potency is the fitted concentration of half-maximal effect; tags give direction and shape of the fitted curve.
Structure (SMILES),Potency,"activity, negative = toxicity"
Cc1ccc([C@@H]2CC=C(C(=O)O)[C@H](c3ccc(C(C)(C)C)cc3)N2S(=O)(=O)c2ccc(C)cc2)cc1,"inconclusive [cytotoxic, partial curve]",–
CCc1cc(C(=O)Nc2cc(S(=O)(=O)N3CCCCC3)ccc2N2CCN(C)CC2)sc1C,"inconclusive [cytotoxic, single point]",–
CC1=CN2C(=N)/C(=C/c3ccc(Sc4ccc(Cl)cc4)o3)C(=O)N=C2S1,"inconclusive [cytotoxic, single point]",–
CC(C)(C)NCC(O)COc1cccc2c1CCC(=O)N2 (centres undefined),inactive,–
Cc1cccc(C)c1-n1nnnc1C(c1cc2ccccc2o1)N1CCN(C/C=C/c2ccccc2)CC1 (centres undefined),"inconclusive [cytotoxic, single point]",–
CN1Cc2c(N3CCOCC3)nc(SCc3ccccc3)c(C#N)c2CC1(C)C,"inconclusive [cytotoxic, single point]",–
CC1=NN(C(=O)CSCc2ccccc2)C(O)(c2ccc(Cl)cc2)C1 (centres undefined),inactive,–
CCC(=O)c1ccccc1OCCSc1nc(C)cc(=O)[nH]1,inactive,–
Cc1ccccc1-c1nc(CN2CCC(C(=O)NC3CC3)CC2)c(C)o1,inactive,–
COc1ccc(CNC(=O)Nc2nc(C(N)Cc3ccc(F)cc3)cs2)cc1 (centres undefined),active: 13 µM,–
COc1ccc(-n2ncc3c(NCc4ccc5c(c4)OCO5)ncnc32)cc1,inactive,–
O=C(Nc1ccc2c(c1)OCCO2)c1cccc(Br)c1,inactive,–
C=CCn1c(SCC(=O)NCCCC)nc2scc(-c3ccco3)c2c1=O,inactive,–
CCc1cccc(N(C(=O)c2csnn2)C(C(=O)NC(C)(C)C)c2ccncc2)c1 (centres undefined),inactive,–
COc1cc(/C=C2/NC(=O)N(CC(=O)Nc3cccc(C)c3)C2=O)ccc1OCC(N)=O,"inconclusive [cytotoxic, single point]",–
Cc1ccc(S(=O)(=O)N2CCCc3ccccc32)cc1,"inconclusive [cytotoxic, partial curve]",–
Cc1nn(-c2ccccc2)c(C)c1C(=O)OCC(=O)Nc1ccccc1F,"inconclusive [cytotoxic, partial curve]",–
O/C(=C\c1ccc2ccccc2n1)c1ccncc1,"inconclusive [cytotoxic, partial curve]",–
CCc1ccc(C(=O)NNC(=O)c2ccc(=O)n(C)n2)cc1,inactive,–
COC(=O)c1[nH]c2ccc(Br)cc2c1NC(=O)C(C)N1CCN(C2CCCCC2)CC1 (centres undefined),active: 20.6 µM,–
CCOC(=O)c1sc2nc(CSc3ccccc3)nc(N3CCC(C(N)=O)CC3)c2c1C,active: 23.1 µM,–
CC(C)Cn1cc(C(=O)NCCCN2CCCC2=O)c2c3ccccc3n(C)c2c1=O,inactive,–
CS(=O)(=O)N1CCN(C(=O)c2cc(-c3cccnc3)nc3ccc(Br)cc23)CC1,inactive,–
S=c1nc(NCCc2ccccc2Cl)c2ccccc2[nH]1,"inconclusive [cytotoxic, partial curve]",–
O=C(NNc1c(Cl)cc(Cl)cc1Cl)c1cccc([N+](=O)[O-])c1,inactive,–

Structure (SMILES),Potency,"activity, negative = toxicity"
Fc1cccc(Cl)c1-c1nnc2ccc3ccccc3n12,inactive,–
Cc1ccc(NS(=O)(=O)c2c(C(=O)N3CCOCC3)c(C)n(C)c2C)cc1C,inactive,–
NC(=O)c1ccc(C(F)(F)F)n(Cc2ccc(Cl)cc2)c1=O,"inconclusive [cytotoxic, single point]",–
O=C(CCl)c1cc2c3c(c1)CC(=O)N3CCC2,"inconclusive [cytotoxic, single point]",–
COc1cc(/C=N/Nc2cccc(C)c2)ccc1OC(=O)c1cccs1,"inconclusive [cytotoxic, partial curve]",–
CC1(Cc2cccc(C(F)(F)F)c2)C(=O)Nc2c(Cl)ccc(Cl)c21 (centres undefined),"inconclusive [cytotoxic, single point]",–
C=CCCC(=O)Nc1nc(C)c(-c2csc(Nc3ccccc3OC)n2)s1,active: 16.4 µM,–
CCSc1nnc2ccc(-c3ccc(OC)c(OC)c3)nn12,inactive,–
O=C(NC1CCCCC1)C(c1ccncc1)N(C(=O)c1csnn1)c1ccccc1F (centres undefined),inactive,–
O=C(O)c1ccc(NC(=O)c2cn(-c3ccccc3)nc2-c2ccc(Cl)cc2)cc1,active: 20.6 µM,–
CCCCNC(=O)O[C@H]1C[C@@H]2CCN3C(=O)CCC[C@H]([C@H]1CC)[C@H]23,–,inconclusive: 10.1%
Cn1c(Cn2nnc3ccccc32)nnc1SCC(=O)N1c2ccccc2Sc2ccccc21,"inconclusive [cytotoxic, single point]",–
CN(Cc1nccs1)C(=O)c1cc(COc2cccc3cnccc23)on1,active: 9.2 µM,–
Cc1ccc(C(O)CN2C3=NCCCN3c3ccccc32)cc1 (centres undefined),"inconclusive [cytotoxic, single point]",–
CCOC(=O)C1=C(COC(=O)c2ccco2)NC(=O)NC1CC (centres undefined),inactive,–
CCOc1ccc(/C=N/NC(=O)c2cc3c(OC)cc(OC)c(OC)c3[nH]2)cc1,"inconclusive [cytotoxic, partial curve]",–
Fc1ccccc1N=C1NN=C(c2ccccc2)CS1,"inconclusive [cytotoxic, single point]",–
CN(C)c1ccc(-c2csc(C(O)c3ccc(F)c(F)c3)n2)cc1 (centres undefined),"inconclusive [cytotoxic, single point]",–
CN1CCN(Cc2ccc(Sc3ccc(Cl)cc3)c([N+](=O)[O-])c2)CC1,–,inconclusive: -31% [cytotoxic]
CC1CC2(C)C(=CC1=O)CCC1C2C(O)CC2(C)C1CCC2(O)C(=O)CO (centres undefined),inactive,–
S=C(Nc1cccnc1)NC1CC2CCC1C2 (centres undefined),inactive,–
Cc1ccc(-c2cc(C(F)(F)F)n3nc(C(=O)N4CCN5CCCC5C4)cc3n2)cc1 (centres undefined),"inconclusive [cytotoxic, single point]",–
O=[N+]([O-])c1ccc(N2CCN(c3ccccn3)CC2)c(Cl)c1,inactive,–
O=C(C[C@H]1C[C@H](C(=O)N2CCCCC2)[C@@]2(CCc3ccccc3)c3[nH]c4ccc(Cl)cc4c3CCN2C1=O)NCCCn1ccnc1,"inconclusive [cytotoxic, single point]",–
